Reference: PMC7819943, “Rice protein-binding microarrays: a tool to detect cis-acting elements near promoter regions in rice”
Some of the results follow.

Molecular target: T1, OsWOX13 (Oryza sativa, UniProt Q5QMM3 1-267)
T1 sequence: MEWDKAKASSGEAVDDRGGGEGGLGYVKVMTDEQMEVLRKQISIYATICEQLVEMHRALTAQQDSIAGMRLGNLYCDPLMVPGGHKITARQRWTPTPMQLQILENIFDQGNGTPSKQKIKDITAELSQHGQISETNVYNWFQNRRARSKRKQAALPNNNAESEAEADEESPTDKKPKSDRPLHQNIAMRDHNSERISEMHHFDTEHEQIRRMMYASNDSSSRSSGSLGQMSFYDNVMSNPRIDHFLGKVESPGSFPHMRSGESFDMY
Experiment: protein-binding microarray (RPBM); PBS, 2% BSA, 51.3 ng/ul salmon testes DNA, 50 uM zinc acetate, 200 nM TF, 25 C, 1 h; high values mean tight binding
Conditions: protein: recombinant; tags: N-terminal polyhistidine and DsRed monomer fusion (pET32a); label: CyDye5-dUTP incorporated in the synthesized complementary strand; 3' TTTTT single-stranded linker to array surface; dsDNA, one strand shown
How it was run: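 The binding signal is fluorescence intensity per array feature (arbitrary units). Readings came from an Axon 4000B scanner after a washed, 2% BSA-blocked, double-stranded custom Agilent array had been incubated for 1 h at 25 °C with 200 nM protein and 50 µM zinc acetate. The protein was a Ni–NTA-purified transcription factor fused N-terminally to polyhistidine and DsRed, expressed in E. coli BL21-CodonPlus.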

With “ATGTGACGTAAATTAGACTCAAAAGATTCGTCTCGCGATTCGGAGTCACCTAGTGCAG” as the sequence, how does the binding signal read?
The binding signal was 17400 fluorescence intensity (a.u.).

For “CATGATTTGAAATTTGTCAAACAAAGCCTTATTGTTCTTACGGAGTCACCTAGTGCAG”, which binding signal is on record?
Its binding signal is 31100 fluorescence intensity (a.u.).

With “CCTGATTTCTAAAGAAAGCCGTCCGGTTTTAACTGAGTCTCGGAGTCACCTAGTGCAG” as the sequence, how does the binding signal read?
The binding signal was 10100 fluorescence intensity (a.u.).

How did the binding signal turn out when “TATTCAGGAATCTGAATTGATTGGCTGTGCTCAAGTTACTCGGAGTCACCTAGTGCAG” was run?
The binding signal was 24200 fluorescence intensity (a.u.).

How did the binding signal turn out when “GTTGATGGATGACATAAATTGAAGGGAAACAACCACCTCTCGGAGTCACCTAGTGCAG” was run?
Its binding signal is 41500 fluorescence intensity (a.u.).

Which binding signal does the source give for “CTACAAACCAATCAGTTAATCCCAAGTATATAATCCTAATCGGAGTCACCTAGTGCAG” here?
Its binding signal is 4790 fluorescence intensity (a.u.).

“ACTTGACAGCCCTAATTGATCTTATTACATGCAGAGGATCCGGAGTCACCTAGTGCAG” was tested. Which binding signal did it give?
The binding signal was 56300 fluorescence intensity (a.u.).

Which binding signal does the source give for “CTGTAAATTGCAAATCTACAAGAACTCTACATGTCTCTTACGGAGTCACCTAGTGCAG” here?
The binding signal was 4080 fluorescence intensity (a.u.).

“ATATAGTTTCATCACAATTAAATAGAAATTTAATAGTACTCGGAGTCACCTAGTGCAG” was tested. Which binding signal did it give?
The binding signal was 3180 fluorescence intensity (a.u.).

For “CTGATTTGCTCTCTCATCTTTATAAATATGAGCACTCGTCCGGAGTCACCTAGTGCAG”, which binding signal is on record?
Its binding signal is 19700 fluorescence intensity (a.u.).

“GTAATCAGTGTGTGATTAATGTGTGGAGAATAGAAAGTGACGGAGTCACCTAGTGCAG” was tested. Which binding signal did it give?
Its binding signal is 7420 fluorescence intensity (a.u.).

Which binding signal does the source give for “TACAAATTTGCGCCCTCTAATCATGCATACACATTATGATCGGAGTCACCTAGTGCAG” here?
The binding signal was 8700 fluorescence intensity (a.u.).

“ATAATTACTAAATATTTAATTTAGGCATAACTAATTATCACGGAGTCACCTAGTGCAG” was tested. Which binding signal did it give?
The binding signal was 9860 fluorescence intensity (a.u.).

For “ACATGACAGCGATTGTTGATTGATTTCATAGTAGTATATGCGGAGTCACCTAGTGCAG”, which binding signal is on record?
The binding signal was 40000 fluorescence intensity (a.u.).

How did the binding signal turn out when “AAAATTGGTGGAAATGGAGTGAATATGGTGAATATGGCAACGGAGTCACCTAGTGCAG” was run?
Its binding signal is 3230 fluorescence intensity (a.u.).

For “TGATTCTAACATGATTGGTCCCATGTGCAGATGAGTAAATCGGAGTCACCTAGTGCAG”, which binding signal is on record?
Its binding signal is 13300 fluorescence intensity (a.u.).

How did the binding signal turn out when “TGATTGTACGTATTCTGATTGATTGCTTATCGATATCTCACGGAGTCACCTAGTGCAG” was run?
The binding signal was 26100 fluorescence intensity (a.u.).

With “TTTGCTTGATTTTATAATGCCAAGCTTGAGAAAATGGTGGCGGAGTCACCTAGTGCAG” as the sequence, how does the binding signal read?
The binding signal was 4990 fluorescence intensity (a.u.).

How did the binding signal turn out when “CGCATATTCACTCATGATTAAAATTTTAGTGGAGTTAAATCGGAGTCACCTAGTGCAG” was run?
Its binding signal is 7340 fluorescence intensity (a.u.).

How did the binding signal turn out when “GTCTCGGATAATTTAAATTTTGTTCATGTAACTCGCAGGTCGGAGTCACCTAGTGCAG” was run?
Its binding signal is 21600 fluorescence intensity (a.u.).

With “TTTAACACTAATCATCACCAAGCGAACATCAAAGTCAAGTCGGAGTCACCTAGTGCAG” as the sequence, how does the binding signal read?
Its binding signal is 6410 fluorescence intensity (a.u.).

With “AGAGGTGGGATTGAGATTGGAAAATGAATGAAATGTTAGACGGAGTCACCTAGTGCAG” as the sequence, how does the binding signal read?
Its binding signal is 11400 fluorescence intensity (a.u.).

“GATTTGATAATATAATTTAATCCTCCGTAAATGGGTTTCGCGGAGTCACCTAGTGCAG” was tested. Which binding signal did it give?
Its binding signal is 9650 fluorescence intensity (a.u.).

How did the binding signal turn out when “GGTGATTGCATTTGCTGATGTCAGGTATGCCTATTATATTCGGAGTCACCTAGTGCAG” was run?
Its binding signal is 14600 fluorescence intensity (a.u.).

“ATTCATGATTATGGAGACGTGGCTAGGGCTCAAGTCCAAACGGAGTCACCTAGTGCAG” was tested. Which binding signal did it give?
The binding signal was 6750 fluorescence intensity (a.u.).

With “CAATGATCAATAATGTGATTATGTAAAACTTTATAGGCATCGGAGTCACCTAGTGCAG” as the sequence, how does the binding signal read?
Its binding signal is 20200 fluorescence intensity (a.u.).

Which binding signal does the source give for “TAAATTATTATTATTATTATCATCTCCTCCCGCTCCCGCTCGGAGTCACCTAGTGCAG” here?
Its binding signal is 7690 fluorescence intensity (a.u.).

For “GATCTTATCCGCCTCATGTGATTGCCGTCCTCCATGGGGACGGAGTCACCTAGTGCAG”, which binding signal is on record?
Its binding signal is 3400 fluorescence intensity (a.u.).

How did the binding signal turn out when “CCCTTAATTATCAAAACCGATGCAATTTGACTCCCTCGGTCGGAGTCACCTAGTGCAG” was run?
Its binding signal is 44000 fluorescence intensity (a.u.).

“CAATGATGCACTCAATTTGTTGCTTTGATAGTCGCTTTTGCGGAGTCACCTAGTGCAG” was tested. Which binding signal did it give?
Its binding signal is 5250 fluorescence intensity (a.u.).

“TTAGATTTGAACTCTTATTTGTTTCAAATATTTTCCCCTTCGGAGTCACCTAGTGCAG” was tested. Which binding signal did it give?
Its binding signal is 10900 fluorescence intensity (a.u.).

How did the binding signal turn out when “CACCTACTTTCACTTATTATCCAATCACAACATTCTTCCACGGAGTCACCTAGTGCAG” was run?
The binding signal was 4920 fluorescence intensity (a.u.).

“ACTGATTAGAATATTCTGCAGAAAATAATGTGTACAAATGCGGAGTCACCTAGTGCAG” was tested. Which binding signal did it give?
The binding signal was 27000 fluorescence intensity (a.u.).

Which binding signal does the source give for “GAATAGACCGAAATTAATTAAGGCAGTAATCACCCAGATGCGGAGTCACCTAGTGCAG” here?
Its binding signal is 16100 fluorescence intensity (a.u.).

How did the binding signal turn out when “AACCATGTGATTTTATTTTAAAAGGACTTTTAATGTATGACGGAGTCACCTAGTGCAG” was run?
The binding signal was 3740 fluorescence intensity (a.u.).

With “TAAAATAAAATCAGCTTAATTTTAAAGACTTCGTCCACTGCGGAGTCACCTAGTGCAG” as the sequence, how does the binding signal read?
Its binding signal is 3220 fluorescence intensity (a.u.).

With “TTTTAATTAAAATTTGTCCTCCAACAAACTGGCCAAGCCACGGAGTCACCTAGTGCAG” as the sequence, how does the binding signal read?
The binding signal was 33900 fluorescence intensity (a.u.).

Which binding signal does the source give for “CTTTAATTACTTATTTAATTCTATATGTTGCTAAATTAGTCGGAGTCACCTAGTGCAG” here?
Its binding signal is 34200 fluorescence intensity (a.u.).

For “CCGGGACTGGAATTTGCGGGATTGCGTTCGTAAACCCTACCGGAGTCACCTAGTGCAG”, which binding signal is on record?
The binding signal was 4030 fluorescence intensity (a.u.).

With “CGATCTAACCAATCACAAGATTACATGGCAAATAGCGAAGCGGAGTCACCTAGTGCAG” as the sequence, how does the binding signal read?
Its binding signal is 4840 fluorescence intensity (a.u.).

For “ATGCTAGTGATTGTATGACATGCCTTCAATATGGCCAATGCGGAGTCACCTAGTGCAG”, which binding signal is on record?
The binding signal was 7860 fluorescence intensity (a.u.).

How did the binding signal turn out when “TTATCAATGATAGTAATTATATGTCATAGTTGTGAAAAGACGGAGTCACCTAGTGCAG” was run?
Its binding signal is 17300 fluorescence intensity (a.u.).
